Source: publication PMC12136788
This is one part of the list.

B1: 31665681_31665801_2464_3pUTR_ENSG00000169926_ENST00000307145|human|control|control (ssRNA)
RNA: GGGAGUUCUACAGUCCGACGAUCCCUGGAGCCUCCAGGCAGGACAAGGAGAAGCAGGAGGAAAAGGGAGGAGGAGUCCAGGGGAAACGGAGAGGCUGGAGGUUUGCUAAGUCUGAGUUGGGGACAUGGUGGGUCUGAGAAAAGCAACAGAGGAUUGAGCAUCA
B2: chr1:174973770:174973771:+_ENSG00000116161_ENST00000406752|hu_mus|FALSE|FALSE (ssRNA)
RNA: GGGAGUUCUACAGUCCGACGAUCGAGUUCCGUCUCAAUCUUGGACUUUUCACUUGUAAGAGUAUCACGUAGUCUUUUCCUAGUGGACUUUUCCAGCAAUACUUUGACCUCUUCUAGGUCUUUCUGCAACUCUUCCAAAACGGACAACAGAGGAUUGAGCAUCA
B3: chr17:80203902:80203903:-_ENSG00000141551_ENST00000269361|hu_hu|motif|central (ssRNA)
RNA: GGGAGUUCUACAGUCCGACGAUCAGUGCUGCCUUCCGAUGGGAGACGAGCAGCUACUUGCCGUGGUGUUCGAAAGGAAUGCGGUUCUGUGAGGUGGACAUGCGAGAGGUAUCUUGUCGGCCUGUGAGGUCGGACGAGGAGAUGCAACAGAGGAUUGAGCAUCA
B4: chr5:128440902:128440903:+_ENSG00000066583_ENST00000173527|hu_mus|hu_hu_hu_mus_True|68_108 (ssRNA)
RNA: GGGAGUUCUACAGUCCGACGAUCUUGAACCGUGCUCCCAAGUCCUUUGGGGUAUUGUUCCGUUAUGAUAACAGGAAUCCCUAAGAUCCGAGCUCCUUGCAACAGUCUCUGUCCCACACUAAUGAUGUCCCCAAAGUAUUUGAUCAACAGAGGAUUGAGCAUCA
B5: chr11:100581416:100581417:-_ENSMUSG00000019173_ENSMUST00000107364|mus_mus|FALSE|FALSE (ssRNA)
RNA: GGGAGUUCUACAGUCCGACGAUCCCCGCCAUGGCGCGCUGCUCUGUAGUAGUACCAGUGAGCGUGGGGGUGGGGCCGGUGCUAUGCAAAGAGGCACUUAAUGGGAAGGGAGGCCUCCAACGCGGCUCCGGGCAGCAGCGUUACCAACAGAGGAUUGAGCAUCA
B6: chr8:79514811:79514812:+_ENSG00000171033_ENST00000352966|hu_mus|FALSE|FALSE (ssRNA)
RNA: GGGAGUUCUACAGUCCGACGAUCAGAUACUAAGACUGAACUCAGGCAAUAUUCACAUUCAUGGAUAUUUCCACAUGCCUGUAUAAUAAAGCAAAGUGGGCUCAGUGAGUCUAGUGGAUGUAACCCUCGGCAGUUAUCAAGAGGCAACAGAGGAUUGAGCAUCA
B7: chr5:37680062:37680063:+_ENSMUSG00000029121_ENSMUST00000031004|mus_hu|mus_mus_mus_hu_False|18_98 (ssRNA)
RNA: GGGAGUUCUACAGUCCGACGAUCUUUGGGUGUAGCUGGCACCUCGUACACAGGACCGUCAUACAUGCCCCUGGAAACCCCUUGCAAUCCAAAAACCUUAUUCCUGAUUUUGACGCGCUGGUAGAGAUGCUCCGGGAACGCCUUCAACAGAGGAUUGAGCAUCA
B8: 49560123_49560243_1055_CDS_ENSMUSG00000037892_ENSMUST00000035931|mouse|control|control (ssRNA)
RNA: GGGAGUUCUACAGUCCGACGAUCCAUGUCGGAGGCGGUGAGCUGAAGCUCGUAGCUAGCCUUCAGCUCCCGAUCCAACUCUUUCACCACUAUGAGUUCAGCGUACUUGGCCCCGUCUGUCCUGGUUCGCACUUCGAUAUUAAACAACAGAGGAUUGAGCAUCA
B9: chr14:78183846:78183847:+_ENSG00000119705_ENST00000557342|hu_hu|hu_hu_hu_mus_False|1_98 (ssRNA)
RNA: GGGAGUUCUACAGUCCGACGAUCUCUCAGAAAUCUUUCUUUCUUUUAUGUUUGAGCUCCGUGCAAAGCCUUUGCUCUUUGAGCUUGAACGUGGAUCUAUGGGAGGGAAAGCACUGUCAGAAAAGGUAAUUUUUUUUUCCGAAGCAACAGAGGAUUGAGCAUCA
B10: chrX:71549400:71549401:+_ENSMUSG00000019087_ENSMUST00000019231|mus_hu|mus_mus_mus_hu_False|28_38 (ssRNA)
RNA: GGGAGUUCUACAGUCCGACGAUCGCAGUAGGAAGAGGGAAGCUCUUCAGUCCAGUGCGCUGCAGGGUGGGAAAGCAACAACACGGACACCGUCCCACCUCAAUUCCUCUCAGGUGUACAGGGUCACACAAUCUGGGUCAAAGACAACAGAGGAUUGAGCAUCA
B11: chr8:73998637:73998638:+_ENSMUSG00000074247_ENSMUST00000124745|mus_hu|motif|central (ssRNA)
RNA: GGGAGUUCUACAGUCCGACGAUCCUUGAUACAGGUUACAGCAUAAAUAAAAACUCAAGGAAAAUAAAUACAUCGGCUCCGGUGAGGUUGGAAGUGGUGUGGACGCAGGGUGUGGAUGGGCCGGCAGGGAGGCGGGCGGGCGGGCAACAGAGGAUUGAGCAUCA
B12: chr1:220276048:220276049:+_ENSG00000067704_ENST00000302637|hu_hu|hu_hu_hu_mus_True|78_88 (ssRNA)
RNA: GGGAGUUCUACAGUCCGACGAUCGCAAAUUGCCUGGUUGGCGGGAAUCGUCCAAGGUUGUGUGGUCCAAACUAAAACGCUAACAGGGGAUGAGGCAUCUGUAAGAGACUCCAACUUCGGAGGAGGUCUCAGGAGGGGGAAUCUCAACAGAGGAUUGAGCAUCA
B13: chr5:156566167:156566168:-_ENSG00000155868_ENST00000420343|hu_mus|motif|central (ssRNA)
RNA: GGGAGUUCUACAGUCCGACGAUCAAGAUCUUCUAGCUUUUCUUCUCGUUUUAUACUCCCAGGACUUCUUAUUAAGAUGUCGGAAAGGUCUAAGAAAUUAAUCAGUAUAGACAUAUUGAGUUUUCUCAGCUCUUUCUUAUGAUCCAACAGAGGAUUGAGCAUCA
B14: chr11:88707168:88707169:-_ENSMUSG00000018428_ENSMUST00000018572|mus_hu|FALSE|FALSE (ssRNA)
RNA: GGGAGUUCUACAGUCCGACGAUCCAAUGCCAAGGGGAAGAGCGAACGGAACUGGAUUGCCAUCCUGGAGGCUUGAAGUAAUUACACCAGCUCCUCGGCUACCAUCGGGGUGCGGGAUGCGGAGUCCGCGCGCCGCCGCCGGCCCAACAGAGGAUUGAGCAUCA

molecular target: T1, UNK ZnF1-3 (human, UniProt Q9C0B0 31-174); assay: nsRBNS (natural sequence RNA bind-n-seq); RBNS binding buffer (assumed for nsRBNS): 25 mM Tris pH 7.5, 150 mM KCl, 3 mM MgCl2, 0.01% Triton X-100, 500 ug/ml BSA, 20 U/ml SUPERase-In, 4 C; UNK is unkempt and MSI1 is Musashi-1; names of the RNAs are library labels; protein concentration not given here; high values mean tight binding
T1 sequence: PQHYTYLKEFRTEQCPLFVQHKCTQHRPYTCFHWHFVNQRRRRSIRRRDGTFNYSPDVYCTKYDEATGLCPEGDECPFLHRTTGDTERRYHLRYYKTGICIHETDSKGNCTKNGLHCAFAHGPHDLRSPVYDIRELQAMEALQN

In order of falling binding signal:
1. B1  2.42 enrichment R
2. B11  1.9 enrichment R
3. B12  1.67 enrichment R
4. B10  1.34 enrichment R
5. B14  1.33 enrichment R
6. B5  1.05 enrichment R
7. B9  1.04 enrichment R
8. B3  0.931 enrichment R
9. B7  0.901 enrichment R
10. B8  0.851 enrichment R
11. B4  0.776 enrichment R
12. B6  0.712 enrichment R
13. B13  0.426 enrichment R
14. B2  0.405 enrichment R
